# PubChem BioAssay AID1768 (National Center for Advancing Translational Sciences (NCATS), 2009)
# Among all 270,000 compounds or so, about 620 (0.23%) were called active. This list was built around the results that the source calls inconclusive (neither active nor inactive); the mix of calls is not that of the screen. Calls follow the shape of the dose curve; as a rule, active = well fitted inhibition curve with a large enough effect in the polarisation, with a control signal flat (not every such curve was filed as active); inconclusive = small, poorly fitted or top-dose-only effect, or effect the other way, or a change in a side signal; inactive = no such curve, though single readings can be large or run the other way; the % refers to the polarisation. A potency beside an inconclusive call is a rough fit, not a confirmed value. “Side channel” marks fits to a control or component signal instead of the main read-out.
# Target: Menin (Homo sapiens) (UniProt O00255)
# Test: qHTS Assay for Inhibitors Targeting the Menin-MLL Interaction in MLL Related Leukemias: Competition With Texas Red Labeled MLL-derived Mutant Peptide; as to FP activity change, negative = inhibition: % of control where 0% means no effect
# Conditions: fluorescence polarization; FP activity change, negative = inhibition: at 61.6 µM (top of the series)
# Potency is read from the fitted curve at half-maximal effect; tags tell the direction and shape of the fitted curve or compound fluorescence and quenching.
Compound,Potency,"FP activity change, negative = inhibition"
C=CCNC(=O)COC(=O)c1c2c(nc3ccccc13)CCC2,"inconclusive: 39.8 µM [quencher, side channel, single point]",
Clc1cccc(-c2nc(NCCN3CCOCC3)c3ccccc3n2)c1,"inconclusive: 12.6 µM [quencher, side channel, partial curve]",
CCOC(=O)c1c(NC(=O)c2ccoc2C)sc2c1CCC2,"inconclusive: 2.82 µM [inhibitor, full curve, poor fit]",
COc1ccc(-c2csc(Nc3ccc(O)cc3)n2)cc1,"inconclusive: 10 µM [quencher, side channel, partial curve]",
Cn1nnc2cc(C(=O)Nc3ccc(Cl)cc3)ccc21,"inconclusive: 39.8 µM [inhibitor, single point]",
COc1cccc(CN2CCNC(=O)C2CC(=O)N(C)C2CCCCC2)c1 (stereo not drawn),"inconclusive: 1.41 µM [inhibitor, full curve, poor fit]",
COCc1cc(C)nc2sc(C(=O)Nc3ccccc3OC)c(N)c12,"inconclusive: 31.6 µM [quencher, side channel, single point]",
O=[N+]([O-])c1ccc(S(=O)(=O)N2CCN(Cc3c[nH]c4ccccc34)CC2)cc1,"inconclusive: 39.8 µM [quencher, single point]",
CCCCOP(=O)(c1ccc(N(C)C)cc1)C(O)c1ccc(N(C)C)cc1 (stereo not drawn),"inconclusive: 1.41 µM [inhibitor, full curve, poor fit]",
CC(C)C[C@@H]1NC(=O)[C@H](C(C)C)NC(=O)c2cc([N+](=O)[O-])cc(I)c2OCC[C@@H](C(N)=O)NC1=O,"inconclusive: 25.1 µM [quencher, side channel, single point]",
O=C1CS/C(=N\C(=O)N2c3ccccc3Sc3ccccc32)N1,"inconclusive: 28.2 µM [quencher, side channel, single point]",
Cc1cc(C)cc(NC(=S)Nc2ccc(Cl)c(Cl)c2)c1,"inconclusive: 39.8 µM [quencher, side channel, single point]",
S=C(NC1CC1)N1CCN(c2ccc(Cl)cc2)CC1,"inconclusive: 14.1 µM [quencher, side channel, partial curve]",
NC(=O)c1ccccc1NC(=O)Nc1ccc(F)c(Cl)c1,"inconclusive: 10 µM [quencher, side channel, partial curve]",
COc1cccc(Nc2nc(-c3ccccc3O)nc3ccccc23)c1,"inconclusive: 3.16 µM [quencher, side channel, partial curve]",
CN1C2CCC1CC(OC(=O)C(O)c1ccccc1)C2 (stereo not drawn),inactive,
CCN1C(=O)/C(=C2/C=Cc3ccccc3N2CC)SC1=S,"inconclusive: 28.2 µM [quencher, side channel, partial curve]",
COc1ccc(C(=O)NC(=S)NNC(=O)Cc2cccs2)cc1,inactive,
CSC1=N/C(=C\c2ccc(C)o2)C(=O)S1,"inconclusive: 6.31 µM [quencher, side channel, full curve]",
Clc1ccc(OCc2nn3c(C4CCCCC4)nnc3s2)cc1,"inconclusive: 35.5 µM [fluorescent, side channel, single point]",

Compound,Potency,"FP activity change, negative = inhibition"
CCN(CC(=O)Nc1c(C(=O)OC)[nH]c2ccc(C)cc12)c1ccc2c(c1)OCO2,"inconclusive: 12.6 µM [quencher, side channel, partial curve]",
CC(C)(C)c1ccc(CN(Cc2ccco2)Cc2nnnn2C2CCCC2)cc1,"inconclusive: 22.4 µM [fluorescent, side channel, partial curve]",
COc1ccc(NC(=O)Nc2cccc(NC(C)=O)c2)c(OC)c1,"inconclusive: 0.794 µM [inhibitor, full curve, poor fit]",
CC(=O)Nc1ccc(NC(=O)Cc2ccc(S(=O)(=O)N3CCCCC3)s2)cc1,"inconclusive: 28.2 µM [quencher, side channel, single point]",
COC(=O)c1cc(NS(=O)(=O)c2ccc(N3CCCCCC3)c([N+](=O)[O-])c2)cc(C(=O)OC)c1,"inconclusive: 39.8 µM [quencher, single point]",
O=c1c(-c2ccc(Cl)cc2)nc2cnc(N3CCNCC3)nc2n1Cc1cccs1,inactive,
Cc1cc(C(=O)O)ccc1-n1c(C)cc(C=C2C(=O)c3ccccc3C2=O)c1C,"inconclusive: 15.8 µM [quencher, side channel, partial curve]",
O=C(CN1C(=O)S/C(=C\c2ccc(Cl)cc2)C1=O)NNC(=O)c1ccccc1O,"inconclusive: 39.8 µM [inhibitor, single point]",
Cc1ccc(NC(=O)CC(=O)c2ccc([N+](=O)[O-])cc2)cc1S(=O)(=O)Nc1cccc(Cl)c1,"inconclusive: 1.26 µM [quencher, side channel, full curve]",
Cc1ccc(C(C(=O)NC(C)(C)C)N(Cc2ccco2)C(=O)Cn2nnc(-c3cccs3)n2)cc1 (stereo not drawn),"inconclusive: 25.1 µM [fluorescent, side channel, single point]",
Cc1ccc(Cn2nc3c(cc2=O)CCc2ccccc2-3)cc1,"inconclusive: 12.6 µM [fluorescent, side channel, partial curve]",
CCC(C)NC(=O)CSC1=Nc2ccccc2C2=NC(c3ccccc3)C(=O)N12 (stereo not drawn),inactive,
CCCn1nnnc1SCC(=O)Nc1cccc(NC(=O)c2ccco2)c1,"inconclusive: 35.5 µM [quencher, side channel, single point]",
O=C(Cn1c(-c2ccco2)nc2ccccc21)N1CCCCC1,"inconclusive: 1.12 µM [inhibitor, full curve]",
COc1ccccc1Oc1ccc(-c2cnc3ccccc3n2)cc1[N+](=O)[O-],"inconclusive: 12.6 µM [quencher, side channel, partial curve]",
O=C(N/N=C/c1cc(Cl)ccc1O)c1cccnc1,inactive,
C/C(=N\NC(=O)NC1CCCCC1)C1CCCCC1,"inconclusive: 20 µM [inhibitor, partial curve]",
O=C1C2CCCCN2C(=O)N1CCCCN1CCN(c2ccccc2Oc2ccccc2)CC1 (stereo not drawn),"inconclusive: 25.1 µM [fluorescent, side channel, partial curve]",
CCn1c(=N)n(CC(O)COc2cccc(C)c2)c2ccccc21 (stereo not drawn),"inconclusive: 10 µM [inhibitor, partial curve, poor fit]",
CCSC1=C(C#N)C(=O)n2c1cc1c2CCCC1,"inconclusive: 14.1 µM [quencher, side channel, partial curve]",

Compound,Potency,"FP activity change, negative = inhibition"
CC(=O)Cc1nsc(NC(=O)c2cn(-c3ccccc3)nc2-c2ccc(Br)cc2)n1,"inconclusive: 28.2 µM [quencher, side channel, partial curve]",
C=CC1=C2C=C(C3CC3)N(CCCOC(C)C)C=C2C(=O)C(C)(OC(=O)c2ccco2)C1=O (stereo not drawn),,inactive: -11.8% [at 11.7 µM]
COc1cccc(C(=O)NCC(=O)N/N=C/c2cccs2)c1,"inconclusive: 22.4 µM [inhibitor, single point]",
CCCN1CCC(=O)N(C(CSc2ccc(Br)cc2)CC(C)C)CC1 (stereo not drawn),"inconclusive: 2.82 µM [inhibitor, full curve, poor fit]",
COc1ccc(C(=O)Nc2nnc(CCS(=O)(=O)c3ccc(C)cc3)s2)cc1,"inconclusive: 39.8 µM [fluorescent, side channel, single point]",
COc1ccc(CNCC(O)(c2ccccc2)c2ccc(F)cc2)cc1OC (stereo not drawn),"inconclusive: 22.4 µM [fluorescent, side channel, partial curve]",
O=C(O)c1oc2ccccc2c1CSc1ccc(Cl)cc1,"inconclusive: 20 µM [quencher, side channel, partial curve]",
COCc1cc(C)nc2sc(C(=O)Nc3cccc(OC)c3)c(N)c12,"inconclusive: 39.8 µM [quencher, side channel, single point]",
Cc1ccc(F)c(NC(=O)/C(C#N)=C(\O)c2ccc(C(C)(C)C)cc2)c1,"inconclusive: 8.91 µM [quencher, side channel, full curve]",
COc1ccc(/C(O)=C2/C(=O)C(=O)N(Cc3cccnc3)C2c2ccco2)cc1OC (stereo not drawn),inactive,
N=c1n(Cc2ccccc2)c2ccccc2n1CC(O)COc1ccc(Cl)cc1Cl (stereo not drawn),"inconclusive: 5.01 µM [fluorescent, side channel, full curve, poor fit]",
COC(CNS(=O)(=O)c1ccc(S(=O)(=O)NC2CC2)cc1)OC,"inconclusive: 39.8 µM [quencher, side channel, single point]",
CCOC(=O)c1ccc(N=Nc2c(C)c(C#N)c(O)[nH]c2=O)cc1,"inconclusive: 11.2 µM [quencher, side channel, partial curve]",
COc1ccc(C(=O)NCc2nnc(SCC(=O)N3CCCCC3)o2)cc1,inactive,
CCC(Cc1c(I)cc(I)c(O)c1I)C(=O)O (stereo not drawn),inactive,
COc1ccc(C2=NN(C(=O)c3ccccc3)C(c3ccccc3)C2)c(O)c1 (stereo not drawn),"inconclusive: 31.6 µM [fluorescent, side channel, partial curve]",
CC1CC(C)CN(C(=O)CNS(=O)(=O)c2ccc(Br)s2)C1 (stereo not drawn),"inconclusive: 12.6 µM [inhibitor, partial curve, poor fit]",
O=C(NC1=NCCS1)c1cc(-c2cccc(Br)c2)nc2ccccc12,"inconclusive: 8.91 µM [quencher, side channel, partial curve]",
